Some of the results follow. Further columns of the screen follow, without active or inactive calls.
Legend:
Test in all cases: Primary Screen for Target Class Profiling of Small Molecule Inhibitors of Methyltransferases
[1] = target: Glycine N-methyltransferase (Homo sapiens) (UniProt Q14749); conditions: purified enzyme, MTase-Glo SAH luminescence; measured here: GNMT inhibition; at 40 µM; stronger effect = lower value
How it was run: (§1)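 Each enzyme was reacted with SAM and its substrate, with compounds tested once at 40 uM; SAH formed was read by MTase-Glo luminescence.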

[2] = target: Guanidinoacetate N-methyltransferase (Homo sapiens) (UniProt Q14353); conditions: purified enzyme, MTase-Glo SAH luminescence; measured here: GAMT inhibition; at 40 µM; stronger effect = lower value
How it was run: as §1

[3] = target: Histamine N-methyltransferase (Homo sapiens) (UniProt P50135); conditions: purified enzyme, MTase-Glo SAH luminescence; measured here: HNMT inhibition; at 40 µM; stronger effect = lower value
How it was run: as §1

[4] = target: Nicotinamide N-methyltransferase (Homo sapiens) (UniProt P40261); conditions: purified enzyme, MTase-Glo SAH luminescence; measured here: NNMT inhibition; at 40 µM; stronger effect = lower value
How it was run: as §1

[5] = target: Phenylethanolamine N-methyltransferase (Homo sapiens) (UniProt P11086); conditions: purified enzyme, MTase-Glo SAH luminescence; measured here: PNMT inhibition; at 40 µM; stronger effect = lower value
How it was run: as §1
% is set by controls: 0 for no effect and ±100 for the full control effect.

| SMILES | activity change, negative = inhibition [1] [%] | activity change, negative = inhibition [2] [%] | activity change, negative = inhibition [3] [%] | activity change, negative = inhibition [4] [%] | activity change, negative = inhibition [5] [%] |
| --- | --- | --- | --- | --- | --- |
| NC(N)=NC(N)=Nc1cccc(Cl)c1 | 6.29 | 9.51 | -12.5 | -5.11 | -1.3 |
| CCOc1ccc(CCN2C(=O)c3cc4ccccc4n3CC2(C)C(=O)NCCC(C)C)cc1 (stereo not drawn) | 2.83 | 4.62 | 0.167 | 1.37 | -4.77 |
| CCOC(=O)c1cc2n(n1)CC(C)(C(=O)NC1CCCC1)N(c1ccc(C)c(F)c1)C2=O (stereo not drawn) | -1.35 | 2.66 | -2.14 | 3.07 | -4 |
| CCOc1ccc(N2C(=O)c3cc4occc4n3CC2(C)C(=O)NC2CCCC(C)C2C)cc1 (stereo not drawn) | -6.59 | 3.49 | -3.63 | -0.379 | -6.54 |
| CC1(C(=O)NC2CCCCCC2)Cn2c(nc3ccccc32)C(=O)N1CCCN1CCOCC1 (stereo not drawn) | 3.39 | 3.4 | 5.6 | 3.99 | 1.97 |
| Cc1c(C)c(NCC(=O)N(C)C2CCN(Cc3ccc(C(N)=O)cc3)CC2)c(C)c(C)c1N | -9.52 | -2.82 | -15.9 | -17.8 | -7.45 |
| CC(C)CCn1c(=O)c2ccc(C(=O)NC(C)C)cc2n2c(=O)n(CC(=O)Nc3cccc(F)c3)nc12 | 0.563 | 0.851 | 1 | -8.03 | -2.52 |
| CC(C)CCNC(=O)C1(C)Cn2nc(C(=O)N3CCN(c4ccccc4F)CC3)cc2C(=O)N1C (stereo not drawn) | 4.78 | 1.19 | 6.63 | 7.39 | 3.39 |
| O=C(COc1ccccc1)N1CCC2(CC1)OCCN(CCc1ccccc1)C2=O | -2.03 | -0.703 | -1.52 | -6.83 | -0.588 |
| CSc1ccccc1N1CCN(CCCCCC(=O)NC2CCCc3ccccc32)CC1 (stereo not drawn) | -0.587 | 7.79 | -9.22 | -6.46 | 6.23 |
| COc1cc2ncnc(Nc3ccc(NC(=O)c4ccccc4)cc3)c2cc1OC | – | 23.1 | – | -9.68 | -0.916 |
| COc1cccc(CNS(=O)(=O)c2ccc3c(c2)n(C)c(=O)n3C)c1 | 8.31 | 0 | 2.64 | -2.37 | -0.24 |
| CN(CC[C@H]1CN(C(=O)C(C)(C)C)CC[C@H]1CC(=O)O)c1ccccc1 | -9.26 | -0.704 | -1.13 | -1.71 | -4.81 |
| C[C@]1(CO)[C@H]2Cc3sc(NC(=O)C4CCC4)nc3[C@@H](CC(=O)N3CCCCC3)[C@]2(C)CC[C@H]1O | -2.83 | -3.32 | -2.67 | -10.4 | -1.07 |
| C[C@H]1O[C@@H](O[C@H]2[C@@H](O)C[C@H](O[C@H]3[C@@H](O)C[C@H](O[C@H]4CC[C@@]5(C)[C@H](CC[C@@H]6[C@@H]5C[C@@H](O)[C@]5(C)[C@@H](C7=CC(=O)OC7)CC[C@]65O)C4)O[C@@H]3C)O[C@@H]2C)C[C@H](O)[C@@H]1O | 3.67 | -10.1 | -2.34 | -17.2 | -12.3 |
| C=C1CC[C@H]2[C@@H](/C=C(\C)C(=O)[C@@]3(OC(C)=O)C[C@H](C)[C@H](OC(C)=O)[C@@H]3[C@H]1OC(C)=O)C2(C)C | 2.99 | 2.94 | 6.65 | -13.9 | -3.76 |
| Cc1ccc(C)c(NC(=O)Cn2c(=O)oc3cc(S(=O)(=O)N4CCCCC4)ccc32)c1 | -3.39 | 4.5 | 0.515 | 5.77 | -2.21 |
| C=C(C(=O)O[C@H]1C/C(C)=C/CC/C(CO)=C/[C@H]2OC(=O)C(=C)[C@H]12)C(O)CO (stereo partly drawn) | -2.56 | 2.54 | 5.93 | -7.36 | 1.2 |
| COc1ccccc1CNC(=O)[C@@H]1OCCN(C2CC2)[C@H]1c1ccccc1 | -3.41 | -3.33 | -4.21 | -4.48 | -3.29 |
| CCN1C(=O)c2cc(C(=O)NCCc3ccc(OC)c(OC)c3)nn2CC1(C)C(=O)NC1CCCC1 (stereo not drawn) | -6.79 | -0.61 | -4.4 | -10.2 | -6.01 |

| SMILES | activity change, negative = inhibition [1] [%] | activity change, negative = inhibition [2] [%] | activity change, negative = inhibition [3] [%] | activity change, negative = inhibition [4] [%] | activity change, negative = inhibition [5] [%] |
| --- | --- | --- | --- | --- | --- |
| Cn1cc([C@@H](NC(=O)c2ccc3c(c2)CCCC3)C2CC(O)C2)cn1 (stereo partly drawn) | -3.57 | -7.28 | -2.55 | -5.41 | -1.84 |
| O=C(C1CCCN1C(=O)Cc1ccc(F)cc1)N1CCC(N2CCOCC2=O)CC1 (stereo not drawn) | -3.46 | -6.05 | -2.3 | -6.36 | -1.89 |
| CCCS(=O)(=O)N1CC(Oc2ccccc2-c2nc(C3CC3)no2)C1 | -6.11 | -2.9 | -0.741 | -11 | -4.75 |
| Cn1cc(CN2CCOC[C@H]2c2ncc(C(C)(C)C)[nH]2)c2ccccc21 | -7.76 | -10.3 | -8.14 | -5.98 | -4.35 |
| COc1ccccc1CNC(=O)C1(C)Cn2nc(-c3ccccc3)cc2C(=O)N1CCc1ccc(SC)cc1 (stereo not drawn) | 0.332 | 5.8 | 1.74 | 3.83 | -0.643 |
| CC(=O)N(C1CC1)C1CCOC2(CCN(C(=O)c3sc(C)nc3C)CC2)C1 (stereo not drawn) | -0.259 | -1.25 | 1.56 | -0.293 | 0.697 |
| CCCc1nc2c3ccccc3n(CC(=O)N3CCN(c4ccc(F)cc4)CC3)c(=O)n2n1 | -7.97 | 0 | -12.1 | -15.2 | -19.8 |
| CCc1cc(N2CCOCC(O)(CN3CCCC3)C2)nc(N2CCCC2)n1 (stereo not drawn) | 1.39 | 0.208 | -19 | -8.91 | 14.9 |
| CCc1cc2c(cc3n2CC(C)(C(=O)NC2CCCCCC2)N(Cc2ccco2)C3=O)s1 (stereo not drawn) | -1.69 | 0 | 2.48 | -9.87 | -1.28 |
| COC(=O)[C@H](Cc1ccc([N+](=O)[O-])cc1)NC(=O)c1cccc2ccccc12 | -0.992 | 0.03 | 10.7 | -13.7 | -2.54 |
| COc1ccccc1-c1ccc(C(=O)N2CCC(NC(=O)Nc3ccc(Cl)cc3)CC2)cc1 | -4.4 | -5.9 | -2.92 | -4.47 | -10.4 |
| COc1cc(OC)c(C(=O)N2CCC3(CC2)[C@H](O)C[C@@H]3OC)cc1OC | -0.567 | -1.56 | -1.24 | -1.46 | -0.918 |
| CCCn1c(=O)c2ccccc2n2c(SCc3ccc(F)cc3)nnc12 | -6.75 | 0 | 6.59 | -7.32 | -0.578 |
| O=C(Cn1nc2n(Cc3ccc(F)cc3)c(=O)c3ccccc3n2c1=O)c1ccccc1 | 5.52 | 0 | 8.18 | 1.8 | 6.21 |
| CC1=C[C@@H](CC#N)[C@H](C(C)C)C[C@H]1CC(=O)N(C)Cc1cccnc1 | -7.88 | -7.69 | -2.65 | -27.4 | -8.02 |
| CC(C)(C)c1cc2n(n1)CC(C)(C(=O)NCc1ccccc1)N(Cc1cccc(F)c1)C2=O (stereo not drawn) | 2.12 | 0.392 | 2.23 | -1.51 | -2.88 |
| CCC1(O)CCC12CCN(C(=O)C1CC1)CC2 (stereo not drawn) | -1.55 | -0.648 | 1.79 | -0.287 | 12.9 |
| Cc1cccc(-c2noc(CCC(=O)N3CCC(C)(c4noc(C)n4)CC3)n2)c1 | -8.06 | -13.6 | -6.24 | -21.1 | -15.9 |
| CCn1cc(CN2C[C@@H](CO)[C@H](NC(=O)COC)C2)c2ccccc21 | -7.3 | -11.4 | -11.1 | -18.7 | -14.1 |
| CCOC(=O)c1cc2n(n1)CC(C)(C(=O)NC1CCC(C)CC1)N(c1ccc(Cl)cc1C)C2=O (stereo not drawn) | 0.541 | 2.71 | -0.538 | -4.26 | -1.97 |

| SMILES | activity change, negative = inhibition [1] [%] | activity change, negative = inhibition [2] [%] | activity change, negative = inhibition [3] [%] | activity change, negative = inhibition [4] [%] | activity change, negative = inhibition [5] [%] |
| --- | --- | --- | --- | --- | --- |
| Cc1noc2c1-c1ccccc1C(c1ccc(Cl)cc1)=N[C@H]2CC(N)=O | 1.56 | 2.02 | 7.3 | -23.3 | -9.43 |
| O=C(Nc1cccc(C(F)(F)F)c1)Nc1cc(S(=O)(=O)NC2CC2)ccc1-c1ccsc1 | -0.832 | -5.29 | -0.404 | -26.4 | -15.2 |
| CCOC(=O)c1cc2n(n1)CC(C)(C(=O)NCc1ccccc1)N(c1ccc(OCC)cc1)C2=O (stereo not drawn) | 0.786 | 1.89 | 3.17 | -1.77 | -0.508 |
| COc1ccc(CN(C)C(=O)C2(C)CCOCC2)cc1 | -5.4 | -9.13 | -2.89 | -18.8 | 4.42 |
| CCC(C)NC(=O)c1ccc2c(=O)n(C)c3nnc(SCc4ccc(F)cc4)n3c2c1 (stereo not drawn) | 7.47 | 4.67 | 5.03 | 2.57 | 3.44 |
| CCCCN1C(=O)NC(c2ccc(OC)cc2)C2=C1COC2=O (stereo not drawn) | -6.23 | -3.07 | 0.724 | -10.2 | -1.67 |
| Cc1cc(C)n(Cc2ccc(C(=O)N3CCCC(CO)CCNC(=O)CC3)o2)n1 (stereo not drawn) | -0.935 | -2.63 | -3.46 | 0.884 | -1.79 |
| CC(C)OCCCn1c(=O)c2ccccc2n2c(CCC(=O)N3CCN(c4ccccc4)CC3)nnc12 | -6.65 | -4.5 | -0.762 | -11.5 | -0.187 |
| CCN1CCN(CCCN2CC3(CCN(Cc4ncc[nH]4)CC3)OC2=O)CC1 | 2.31 | 1.22 | 2.51 | -1.28 | 3.92 |
| NC(=O)c1ccc(F)c2c1C[C@@H](N(C1CCC1)C1CCC1)CO2 | 1.24 | 7.07 | 13.4 | -8.7 | 5.53 |
| CC(C(=O)O)c1ccc2c(c1)[nH]c1ccc(Cl)cc12 (stereo not drawn) | -42.2 | -2.57 | 9.27 | -14.5 | 2.23 |
| CC(C)CCn1c(=O)c2ccccc2n2c(SCC(=O)NC(C)C)nnc12 | 5 | 1.13 | 4.56 | 3.91 | 8.01 |
| COC(=O)c1ncn2c1C(=O)N(Cc1ccccc1F)C(C)(C(=O)NC1CCCC1)C2 (stereo not drawn) | -3.38 | -2.13 | -9.45 | -5.25 | -5.97 |
| COc1ccc(CNC(=O)C(C)n2ccc3cc(S(=O)(=O)N4CCCC4)ccc32)cc1 (stereo not drawn) | 0.19 | 4.96 | -1.56 | -5.57 | -0.256 |
| CCC(C)NC(=O)c1ccc2c(=O)n(CCC(C)C)c3nn(CC(N)=O)c(=O)n3c2c1 (stereo not drawn) | 3.19 | 0 | 1.12 | 4.21 | 3.97 |
| O=S(=O)(c1ccccc1)c1nnn2c1nc(NCc1ccc(Cl)cc1)c1ccccc12 | 4.06 | 0.691 | 9.3 | 4.96 | 0.958 |
| CC(=O)N1CCN(C(=O)c2ccc3nnc(CC4CC4)n3c2)CC1 | -7.34 | -13.5 | -4.84 | -8.65 | 1.87 |
| CS(=O)(=O)N(C1CC1)C1CCOC2(CCN(C(=O)NCc3ccccc3)CC2)C1 (stereo not drawn) | -2.97 | -6.78 | -2.19 | -13.3 | -7.49 |
| Cc1cccc(C)c1NC(=O)C(C)N (stereo not drawn) | 2.18 | 10.1 | 10.4 | -4.65 | 1.58 |
